In PubChem BioAssay AID602310 (National Center for Advancing Translational Sciences (NCATS), 2012):
In all, about 410,000 compounds went through this assay and about 310 (0.076%) were called active. This list was built around the results that the source calls inconclusive (neither active nor inactive); the mix of calls is not that of the screen. Calls come from the whole dose curve; as a rule, active = well fitted curve in the direction sought with a large enough effect; inconclusive = small, poorly fitted or top-dose-only effect; inactive = flat fitted curve, though single readings scatter. Potencies beside an inconclusive call are fits to weak or partial responses and may not hold up.

Biological target: DNA dC->dU-editing enzyme APOBEC-3G (Homo sapiens) (UniProt Q9HC16)
Assay: qHTS for Inhibitors of Vif-A3G Interactions: qHTS; note: nearly all actives have a fitted effect of over 60% in size
Settings: HeLa A3G-eYFP + Vif (tagged APOBEC3G with the HIV-1 protein that degrades it), YFP fluorescence, overnight; series mostly up to 46.1 µM
Summary of the method: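 HeLa cells stably expressing Vif and C-terminally eYFP-tagged A3G, seeded overnight at 37 deg C, then exposed to compound by pintool overnight at 37 deg C. Rise in yellow fluorescence (Ex 488/Em 500-530, Acumen) marks blocked Vif-driven A3G degradation.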
Potency is the fitted concentration of half-maximal effect; tags give direction and shape of the fitted curve.

Sequence of UniProt Q9HC16 (Q9HC16 whole entry, looked up): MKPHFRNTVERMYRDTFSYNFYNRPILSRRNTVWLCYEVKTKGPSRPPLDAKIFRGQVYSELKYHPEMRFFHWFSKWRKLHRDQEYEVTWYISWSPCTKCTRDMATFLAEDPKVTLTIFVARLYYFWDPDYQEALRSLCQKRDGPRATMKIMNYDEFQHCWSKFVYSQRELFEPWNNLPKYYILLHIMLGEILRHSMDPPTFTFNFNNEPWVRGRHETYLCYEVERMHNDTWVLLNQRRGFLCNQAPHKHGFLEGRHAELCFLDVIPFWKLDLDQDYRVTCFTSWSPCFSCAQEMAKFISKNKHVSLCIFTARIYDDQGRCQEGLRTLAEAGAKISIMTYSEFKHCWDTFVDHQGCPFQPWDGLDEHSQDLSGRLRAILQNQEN

| SMILES | Potency |
| --- | --- |
| Cc1cccc(NC(=O)CNC(=O)Cn2ncc(Cl)c(Cl)c2=O)c1C | inconclusive: 22.4 µM [inhibitor, single point] |
| COc1ccc(NC(=O)c2ccccc2NS(=O)(=O)c2ccc(CNC(C)=O)cc2)c(OC)c1 | inconclusive: 10 µM [inhibitor, partial curve] |
| COc1cccc(NC(=O)CN(C)C(=O)/C=C/c2cn(-c3ccccc3)nc2-c2ccc(OC)c(OC)c2)c1 | inactive |
| Cn1c(=O)c2cc(C(=O)NC3CCCCCC3)sc2c2ccccc21 | inconclusive: 15.8 µM [inhibitor, single point] |
| Cc1cc(NCc2ccccn2)nc2ccccc12 | inactive |
| COc1ccccc1CN1CCNC(=O)C1=O | inactive |
| CCC(=O)Nc1nc2ccc(NC(=O)c3cc(OC)c(OC)c(OC)c3)cc2s1 | inconclusive: 14.1 µM [inhibitor, partial curve, poor fit] |
| CCN1C(=O)[C@@H]2Cc3c([nH]c4ccccc34)C(c3cc(OC)c(OC)c(OC)c3)N2C1=S (stereo partly drawn) | inconclusive: 2.24 µM [inhibitor, partial curve, poor fit] |
| CCOc1ccc(Br)cc1/C(C)=N\NC1=NCCN1 | inconclusive: 7.08 µM [inhibitor, partial curve, poor fit] |
| CC(C)(C)c1ccc(NC(=O)NC2CCCc3ccccc32)cc1 (stereo not drawn) | inconclusive: 3.55 µM [inhibitor, full curve, poor fit] |
| CCCc1noc(-c2ccc(NCc3ccc(C)cc3)c([N+](=O)[O-])c2)n1 | inactive |
| COc1cc(/C=C2\SC(N)=NC2=O)cc(Br)c1O | active: 11.2 µM |
| CCOc1cc(/C=C2\CN(CC)C/C(=C\c3ccc(O)c(OCC)c3)C2=O)ccc1O | inconclusive: 4.47 µM [inhibitor, single point] |
| CCOC(=O)c1cccc(NC(=O)[C@H](CSCc2ccccc2)N2Cc3ccccc3C2=O)c1 | inactive |
| Cc1ccc(F)cc1C(=O)N1CCCCC1c1cc(C(=O)NC(C)C)no1 (stereo not drawn) | inactive |
| O=c1cc(CSc2ccc(Cl)cc2)[nH]c2[nH]n(-c3ccccc3)c(=O)c12 | inactive |
| O=C(N/N=C/c1cccs1)c1ccc2ccccc2c1 | inconclusive: 7.08 µM [inhibitor, partial curve] |
| COC(=O)Cn1ccc(N(C)C)c(C#N)c1=O | inactive |
| CN(C)c1cccc(/C=C(\C#N)c2ccccc2)c1 | inconclusive: 0.562 µM [inhibitor, full curve, poor fit] |
| C=C1C(=O)OC2C1CCC(C)=C1C(=O)C3OC3(C)C12 (stereo not drawn) | inconclusive: 6.31 µM [inhibitor, single point] |
| CCCc1[nH]nc2c1C(C1CC=CCC1)C(C#N)=C(N)O2 (stereo not drawn) | inconclusive: 35.5 µM [inhibitor, single point] |
| Cc1ccc2c(=O)c(C(=O)c3ccccc3)cn(CC(=O)Nc3ccc4c(c3)OCCO4)c2n1 | inconclusive: 35.5 µM [inhibitor, single point] |
| COc1ccc(CCNC(=O)CCn2c(=O)c3ccccc3n(CC(=O)Nc3ccccc3F)c2=O)cc1OC | inactive |

| SMILES | Potency |
| --- | --- |
| COc1ccccc1CNC(=O)C(=O)NCC1CCCN1S(=O)(=O)c1cc(C)ccc1C (stereo not drawn) | inactive |
| Cc1nc2ccccc2n1CCc1nc2c3ccccc3nc(SCc3cccc(F)c3)n2n1 | inactive |
| Cc1csc(NC(=O)CSc2nnc3c4ccccc4nc(C(C)(C)C)n23)n1 | inconclusive: 2.24 µM [inhibitor, full curve, poor fit] |
| Cn1c(CN2CCCCC2)nc2cc(NC(=O)c3cccc(Br)c3)ccc21 | inactive |
| O=C1C(=Cc2cccn2-c2ccccc2)C(=O)c2ccccc21 | inconclusive: 31.6 µM [inhibitor, single point] |
| CCc1nnc(NC(=O)c2nc(S(=O)(=O)Cc3cccc(C)c3)ncc2Cl)s1 | inconclusive: 22.4 µM [inhibitor, partial curve, poor fit] |
| COc1cc(OC)cc(C(=O)N2CCN(C3CCCCC3)CC2)c1 | inactive |
| O=[N+]([O-])/C(Cl)=C(/NCCO)C(Cl)=C(Cl)Cl | inactive |
| Cc1cc(C)nc(N/N=C/c2ccccc2OCc2cccc(Br)c2)n1 | inconclusive: 35.5 µM [inhibitor, partial curve, poor fit] |
| N#CC(C#N)=Cc1cn(-c2ncc(C(F)(F)F)cc2Cl)c2ccccc12 | inactive |
| CCCn1c(SCc2nc(-c3ccccc3C)no2)nnc1-c1ccc(Cl)cc1 | inactive |
| Cc1ccc(C)c(OCc2nc3ccc(S(=O)(=O)Nc4c(C)n(C)n(-c5ccccc5)c4=O)cc3[nH]2)c1 | inactive |
| COc1ccc(NC(=O)CSc2c3c(nc4cc(Cl)ccc24)CCCC3)cc1OC | inconclusive: 35.5 µM [inhibitor, partial curve, poor fit] |
| S=C(NCCc1ccccc1)N1CCn2cccc2C1c1ccncc1 (stereo not drawn) | inconclusive: 15.8 µM [inhibitor, single point] |
| COc1ccc2cc(C(=O)N/N=C/c3sc4ccccc4c3O)ccc2c1 | inconclusive: 28.2 µM [inhibitor, single point] |
| Cc1ccc(N=C2NC(=O)/C(=C/C=C/c3ccco3)S2)cc1 | inconclusive: 25.1 µM [inhibitor, single point] |
| Fc1cccc2sc(Nc3nnc(-c4ccco4)o3)nc12 | inconclusive: 35.5 µM [inhibitor, partial curve, poor fit] |
| COc1ccc(C=Cc2ccc3ccccc3n2)c(OC)c1 | inconclusive: 12.6 µM [inhibitor, single point] |
| CC1(C)CC(=O)CC(=NCC(=O)O)C1 | inactive |
| CCOc1cc(/C=N\Nc2ccc([N+](=O)[O-])cc2)ccc1OCC(=O)Nc1ccc(C)c(C)c1 | inconclusive: 2.51 µM [inhibitor, partial curve, poor fit] |
| CCCCCCC1(C)NC(c2ccc3c(c2)OCO3)=CC(c2cc(Br)ccc2O)N1 (stereo not drawn) | inconclusive: 25.1 µM [inhibitor, single point] |
| Cc1cc(SCC(=O)NN)c2cc(Br)ccc2n1 | inconclusive: 35.5 µM [inhibitor, single point] |
| COCCNC(=O)CSc1cc(-c2ccccc2)c2ccc(OC)cc2n1 | inconclusive: 15.8 µM [inhibitor, single point] |

| SMILES | Potency |
| --- | --- |
| CCCCNC(=O)CSc1nc2ccc(Nc3nc(N4CCOCC4)nc(N4CCOCC4)n3)cc2s1 | inconclusive: 20 µM [inhibitor, single point] |
| Cc1ccc(-c2csc3ncnc(Sc4nnnn4-c4ccccc4)c23)cc1 | inconclusive: 8.91 µM [inhibitor, partial curve] |
| Cn1cc([N+](=O)[O-])c(C(=O)Nc2ccc(-c3nc4ccccc4o3)cc2)n1 | inconclusive: 3.55 µM [inhibitor, full curve] |
| Cc1ccnc(NC(=O)/C=C/c2cccs2)c1 | inconclusive: 10 µM [inhibitor, partial curve, poor fit] |
| Cc1ccc(C2CC(=O)C=C(NCc3ccccc3)C2)cc1 (stereo not drawn) | inconclusive: 11.2 µM [inhibitor, single point] |
| O=C(CSc1nc2nn(-c3ccccc3)c(=O)c-2c2n1CCCCC2)c1ccc(O)c(O)c1 | inconclusive: 22.4 µM [inhibitor, single point] |
| Cc1ccccc1NC(=O)C(Cl)=C(Cl)Cl | inconclusive: 35.5 µM [inhibitor, single point] |
| CCOc1nc(-c2ccc(OC)cc2)ccc1-c1noc(C)n1 | inactive |
| CCOc1ccc(S(=O)(=O)Nc2ccc3oc(C)c(C(=O)OCCOC)c3c2)cc1 | inconclusive: 2.51 µM [inhibitor, partial curve, poor fit] |
| COc1ccc(-c2cc3cc(C(=O)O)ccn3c2C(=O)c2ccccc2)cc1 | inconclusive: 11.2 µM [inhibitor, single point] |
| O=C1/C(=C/c2ccccc2)CCc2ccc(Cl)nc21 | inconclusive: 22.4 µM [inhibitor, single point] |
| COc1cccc(C(=O)NC(=O)Nc2ccc(-c3cc(C(F)(F)F)nn3-c3ccccc3)cc2)c1 | inactive |
| Cc1ccc(Cl)cc1NC(=O)Cn1c(=O)c(CNc2ccccc2)cc2cc3c(cc21)OCCO3 | inactive |
| COc1cccc(/C=C2/Sc3ccc(C(=O)NCCN4CCCC4)cc3NC2=O)c1 | inconclusive: 35.5 µM [inhibitor, single point] |
| Cc1ccc(N2C(=O)c3cccc4c([N+](=O)[O-])ccc(c34)C2=O)c2cccnc12 | inconclusive: 3.16 µM [inhibitor, partial curve, poor fit] |
| CC(=O)Nc1cc2c3c(cccc3c1)-c1ccccc1-2 | inconclusive: 1.78 µM [inhibitor, partial curve, poor fit] |
| CS(=O)(=O)N(CC(=O)N1CCOCC1)c1cccc(F)c1 | inactive |
| C(=Cc1c[nH]c2ccccc12)c1ccc2ccccc2n1 | inconclusive: 15.8 µM [inhibitor, partial curve, poor fit] |
| CCOc1ccc(S(=O)(=O)Oc2ccc3ccccc3c2)cc1 | inconclusive: 8.91 µM [inhibitor, partial curve] |
| COc1cc(/C=C(/C#N)C(=O)Nc2ccccc2)c(Br)cc1OCc1ccc(C(=O)O)cc1 | inconclusive: 15.8 µM [inhibitor, single point] |
| Cc1ccc(N2C(=O)CSC2c2cccnc2)c(Cl)c1 (stereo not drawn) | inconclusive: 12.6 µM [inhibitor, partial curve, poor fit] |
| CCNC(=O)c1ccc(CSc2ccc(Cl)cc2)cc1 | inactive |
